This is one part of the list. Single values of this set are uncertain. Values with irradiation are relative to irradiated vehicle.
Key:
[1] = tested on: A549-Dual; test: NF-kB reporter (SEAP) activity, viability-corrected, relative to vehicle (fold change vs vehicle); higher = more activation of STING-IRF / NF-kB immune response reporter
[2] = tested on: A549-Dual; test: ISRE reporter (Lucia luciferase) activity, viability-corrected, relative to vehicle (fold change vs vehicle); higher = more activation of STING-IRF / NF-kB immune response reporter
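Wherever NF-kB reporter (SEAP) activity, viability-corrected, relative to vehicle is given: viability correction based on the alamar blue assay, with concentrations leaving 10% survival or less dropped.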

Compound	NF-kB reporter ([1]; 0.1 µM, irradiation: 8 Gy/4 fr)	NF-kB reporter ([1]; 0.1 µM, irradiation: none)	NF-kB reporter ([1]; 0.3 µM, irradiation: 8 Gy/4 fr)	NF-kB reporter ([1]; 0.3 µM, irradiation: none)	NF-kB reporter ([1]; 1 µM, irradiation: 8 Gy/4 fr)	NF-kB reporter ([1]; 1 µM, irradiation: none)	NF-kB reporter ([1]; 3 µM, irradiation: 8 Gy/4 fr)	NF-kB reporter ([1]; 3 µM, irradiation: none)	NF-kB reporter ([1]; 10 µM, irradiation: 8 Gy/4 fr)	NF-kB reporter ([1]; 10 µM, irradiation: none)	ISRE reporter ([2]; 0.1 µM, irradiation: 8 Gy/4 fr)	ISRE reporter ([2]; 0.1 µM, irradiation: none)	ISRE reporter ([2]; 0.3 µM, irradiation: 8 Gy/4 fr)	ISRE reporter ([2]; 0.3 µM, irradiation: none)	ISRE reporter ([2]; 1 µM, irradiation: 8 Gy/4 fr)	ISRE reporter ([2]; 1 µM, irradiation: none)	ISRE reporter ([2]; 3 µM, irradiation: 8 Gy/4 fr)	ISRE reporter ([2]; 3 µM, irradiation: none)	ISRE reporter ([2]; 10 µM, irradiation: 8 Gy/4 fr)	ISRE reporter ([2]; 10 µM, irradiation: none)
CC1CC2C3CC(F)C4=CC(=O)C=CC4(C)C3(F)C(O)CC2(C)C1(O)C(=O)CO (stereo not given) [Diflorasone]	0.43	0.469	0.585	0.462	0.935	0.463	0.28	0.465	0.285	0.34	0.0395	0.166	0.0335	0.154	0.0605	0.129	0.0401	0.136	0.0335	0.159
Cc1ccc(Nc2nccc(N(C)c3ccc4c(C)n(C)nc4c3)n2)cc1S(N)(=O)=O.Cl	0.988	1.08	0.904	1.12	0.774	1.08	0.853	0.834	0.929	0.859	0.894	1.03	0.979	0.995	0.751	0.887	0.553	0.822	0.505	0.682
CC(C)c1nc(CN(C)C(=O)NC(CCN2CCOCC2)C(=O)NC(CCC(Cc2ccccc2)NC(=O)OCc2cncs2)Cc2ccccc2)cs1 (stereo not given) [Cobicistat (GS-9350)]	1.36	1.32	1.06	1.77	0.956	1.83	1.04	1.49	1.11	0.979	1.18	1.26	1.13	1.39	1.14	1.48	1.35	1.14	1.18	1.39
CC(C)=CCCC(C)(OC1OC(CO)C(O)C(O)C1O)C1CCC2(C)C1C(O)CC1C3(C)CCC(O)C(C)(C)C3C(OC3OC(CO)C(O)C(O)C3O)CC12C (stereo not given) [Ginsenoside Rg1]	1.16	1.24	1.12	1.55	1.01	1.65	1.13	1.55	1.14	1.1	1.07	1.17	1.16	1.25	1.1	1.22	1.11	0.766	1.04	0.922
O=C(OCC1OC(OC(=O)c2cc(O)c(O)c(OC(=O)c3cc(O)c(O)c(O)c3)c2)C(OC(=O)c2cc(O)c(O)c(OC(=O)c3cc(O)c(O)c(O)c3)c2)C(OC(=O)c2cc(O)c(O)c(OC(=O)c3cc(O)c(O)c(O)c3)c2)C1OC(=O)c1cc(O)c(O)c(OC(=O)c2cc(O)c(O)c(O)c2)c1)c1cc(O)c(O)c(OC(=O)c2cc(O)c(O)c(O)c2)c1 (stereo not given) [Tannic acid]	1.1	1.17	0.896	1.59	1.51	1.23	1.88	2.85	1.7	2.07	1.23	1.06	1.07	1.44	1.24	1.16	1.08	9.89	0.32	0.777
CCCC(=O)OC1(C(=O)CO)CCC2C3CCC4=CC(=O)CCC4(C)C3C(O)CC21C (stereo not given) [Hydrocortisone butyrate]	0.971	1.08	1.01	0.877	0.846	0.869	0.72	0.861	0.685	0.948	0.0771	0.306	0.0917	0.252	0.0502	0.184	0.0849	0.233	0.0666	0.245
C=CC1=C(C)c2cc3nc(cc4[nH]c(cc5[nH]c(cc1n2)c(C)c5C=C)c(C)c4CCC(=O)O)C(CCC(=O)O)=C3C [Protoporphyrin IX]	0.953	0.845	0.772	0.66	1.01	0.786	1.02	0.781	0.775	0.964	0.881	0.704	0.718	0.562	0.647	0.677	0.703	0.804	0.766	0.811
Cc1c(Cl)cccc1Nc1ccccc1C(=O)O [Tolfenamic Acid]	0.909	1.36	0.888	1.44	1.27	1.13	1.47	1.11	1.07	0.891	1.07	0.95	0.964	1.22	1.02	1.01	0.913	1.08	1.19	1.17
CC(C)C1C(=O)NC(CCCNC(=N)N)C(=O)NCC(=O)NC(CC(=O)O)C(=O)NC(Cc2ccccc2)C(=O)N1C.O=C(O)C(F)(F)F (stereo not given)	0.878	1.07	0.931	0.941	0.994	0.959	0.852	1.11	0.923	1.04	0.983	1.04	1.2	1.15	1.1	1.16	0.78	1.02	0.752	1.3
O=c1ccc2ccc(O)c(O)c2o1 [Daphnetin]	0.883	1.27	1.03	1.43	1.3	0.971	1.4	0.968	0.903	0.886	1.07	1.01	0.78	1.02	0.845	0.927	0.921	1.07	0.941	0.903
COC(=O)CC(O)(CCCC(C)(C)O)C(=O)OC1C(OC)=CC23CCCN2CCc2cc4c(cc2C13)OCO4 (stereo not given) [Homoharringtonine]	0.835	0.807	0.864	0.812	1.17	1.13	2.15	4.46	1.82	3.05	0.729	1.02	0.0272	0.14	0.0352	0.161	0.0687	0.341	0.0465	0.488
